This is one part of the list. At the low end of the ranking the order means little.
Target: SIX1-Q177R homeodomain (UniProt Q15475)
Experiment: universal protein binding microarray
Details: Universal all-10-mer PBM (8x60K, AMADID 030236), 300 nM GST-tagged protein, Alexa Fluor 488 anti-GST; buffer, salt, pH and temperature not stated; high values mean tight binding; most listed sequences are background and not binding sites; double strand, one strand shown

Sequence | binding signal [E-score]
ATCGTGTA | 0.403
AGTCATAG | -0.0998
GAGGGAGA | -0.137
AATCTCCT | -0.205
AACACAAG | 0.0941
GACCAAAA | -0.121
AGCGGTAA | -0.143
ATGTTAGG | -0.136
AGCACCTC | 0.178
ACATAAGA | -0.197
AAGGGGGT | 0.293
ATGCTCCG | -0.153
AGCAGTCC | -0.306
TATACAGA | 0.11
CCTTCCAC | -0.0829
CAACGGGG | -0.0135
AGGAGTAC | 0.115
CGTAATAG | -0.123
TATGAAGA | -0.224
TACCAGCA | -0.168
ATCCGTGC | 0.0077
CACTAAAG | 0.185

Sequence | binding signal [E-score]
GAGTACAA | 0.0825
AAGATATG | -0.165
AAATGGAA | -0.186
CCCCGGAC | 0.152
GAAAAGTA | -0.269
AGTTGACG | -0.225
GCCGAAGC | -0.124
AGCCTCTC | -0.11
ACGCAACA | 0.107
GTGACGAA | -0.194
ACCTAAAT | -0.0316
AAAACCAG | 0.0735
CAAGTGAC | 0.148
CCGTACAC | 0.418
GGCACGCA | -0.156
ACGTCAAA | -0.0746
CATACCCG | 0.151
TAGATCTA | -0.119
CAAGCCAG | -0.168
AGGGCAGA | -0.0799
CCTTGCAG | -0.0922
GTATTGAC | 0.0898

Sequence | binding signal [E-score]
CTCCATAA | -0.112
ATCGCTGG | -0.0998
TGTTTGAA | -0.0362
ATCACGGG | -0.0683
AAGGACCT | 0.0451
CCAGCGAC | 0.065
GCGCGGCA | 0.0163
ACTCTGCT | -0.127
CCACCGTC | -0.18
CATCGTCC | -0.0897
TGAGGAAA | -0.174
AGGGAATG | -0.153
CATTTACC | 0.0461
GTTGGCAA | -0.108
AGAGGTAA | -0.134
CCCTTTCA | -0.0449
AATGTGTC | 0.136
CATTTATA | 0.0461
AATTAAGC | -0.11
ATATAGTC | -0.14
CCGGTCAG | -0.0905
GATTTAGC | -0.17

Sequence | binding signal [E-score]
GACTCTCA | -0.0932
TCTATAAA | -0.212
AGACCTAG | -0.351
GCAATGCA | -0.047
GATCTTAC | 0.125
CACGAGCA | 0.242
CCCTCCCC | 0.13
CCCAGGCC | 0.00368
ACAAAGTA | -0.0604
GAATAAGA | -0.233
ATAAATGC | -0.152
ACATATAA | -0.166
ATGGAGCG | 0.0501
ACGTTAAA | -0.209
CCGGATCA | 0.176
GTGGATTA | 0.00874
TCCCCGAA | -0.0927
ATCGCGTA | -0.000435
AACCTTGT | -0.12
CTATTCCC | -0.153
GTTCCTGA | -0.276
ACGAGCTG | 0.0724

Sequence | binding signal [E-score]
ATGCACAG | -0.107
AGTGTGAG | 0.208
AAATAGCG | -0.0889
TCCACTCA | -0.149
CCGGTAAC | 0.0714
GCATGGTA | 0.0465
ACATCGGC | -0.0802
ACACATGC | 0.176
CATGGCCG | -0.0611
GATCCCAA | 0.113
CCAATCGA | -0.028
ACACTCCG | 0.388
GAGCTGCC | -0.0646
CCCCGCTC | 0.0713
TCTACGAA | 0.0328
GGGCAGAC | -0.0939
AGCGACCC | 0.115
ACCGAGGG | 0.0657
CACTCCGA | 0.251
CATTGTCG | -0.152
AGGCACCC | 0.0742
GTGCTCAA | 0.259
